Measured values from publication PMC4336329 (PLoS ONE, 2015).
In all, about 310,000 compounds went through this assay and about 14,000 (4.5%) showed an effect of 50% or more. The effect is printed as a negative number. Some of the results follow.

target: human ether-à-go-go-related gene (hERG) potassium channel (human, UniProt Q12809); assay: primary screen, population patch clamp on CHO cells stably expressing hERG
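Further: peak tail current of the secondary pulse compared with the same well before compound.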

Sequence of human ether-à-go-go-related gene (hERG) potassium channel (Q12809 whole entry, looked up): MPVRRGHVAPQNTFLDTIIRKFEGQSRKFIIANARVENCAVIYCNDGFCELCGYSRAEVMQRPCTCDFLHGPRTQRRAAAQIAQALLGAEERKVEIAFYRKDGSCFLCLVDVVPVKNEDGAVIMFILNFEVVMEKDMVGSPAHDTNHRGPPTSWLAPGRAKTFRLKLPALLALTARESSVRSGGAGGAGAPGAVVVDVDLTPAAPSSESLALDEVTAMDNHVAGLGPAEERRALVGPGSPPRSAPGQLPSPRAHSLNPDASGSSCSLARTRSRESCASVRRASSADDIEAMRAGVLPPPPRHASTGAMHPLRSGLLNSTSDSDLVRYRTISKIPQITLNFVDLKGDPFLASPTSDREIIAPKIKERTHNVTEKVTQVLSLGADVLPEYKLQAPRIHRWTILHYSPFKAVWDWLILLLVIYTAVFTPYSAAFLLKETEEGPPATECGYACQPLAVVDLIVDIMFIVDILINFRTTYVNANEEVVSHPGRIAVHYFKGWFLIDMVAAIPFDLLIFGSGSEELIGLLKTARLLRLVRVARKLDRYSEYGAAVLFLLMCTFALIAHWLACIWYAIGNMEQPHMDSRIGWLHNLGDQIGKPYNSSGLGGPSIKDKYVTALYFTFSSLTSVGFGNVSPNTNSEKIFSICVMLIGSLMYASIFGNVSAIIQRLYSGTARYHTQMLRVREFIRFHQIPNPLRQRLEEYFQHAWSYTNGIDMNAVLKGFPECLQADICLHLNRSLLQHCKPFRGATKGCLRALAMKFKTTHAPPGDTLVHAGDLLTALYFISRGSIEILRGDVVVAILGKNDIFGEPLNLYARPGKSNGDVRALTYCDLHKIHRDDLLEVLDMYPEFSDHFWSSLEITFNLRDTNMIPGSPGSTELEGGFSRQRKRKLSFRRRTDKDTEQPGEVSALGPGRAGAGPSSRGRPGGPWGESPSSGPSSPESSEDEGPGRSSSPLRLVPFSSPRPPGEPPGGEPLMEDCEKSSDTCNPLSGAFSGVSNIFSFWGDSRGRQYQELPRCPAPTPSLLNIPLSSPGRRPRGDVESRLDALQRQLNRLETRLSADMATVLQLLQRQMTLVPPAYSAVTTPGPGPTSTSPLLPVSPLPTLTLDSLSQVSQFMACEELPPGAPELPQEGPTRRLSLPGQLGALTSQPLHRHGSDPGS

First: O=S(=O)(NCCC1CC1(Cl)Cl)c1ccccc1 (stereo not drawn)
Second: Cc1c(Cl)cnc(NC(=O)COC(=O)CCS(=O)(=O)c2ccccc2)c1Cl
The “hERG current change (%, negative = inhibition) at 10uM” value of the first is higher: 4.4% for the first, -1.19% for the second.

First: O=C(NCCc1ccc(Cl)cc1)c1ccc2[nH]c(=O)c(=O)[nH]c2c1
Second: Cc1ccc(CCNC(=O)C2CCCN2S(=O)(=O)c2ccc3c(c2)CCC(=O)N3)cc1 (stereo not drawn)
The “hERG current change (%, negative = inhibition) at 10uM” value of the first is higher: 18.2% for the first, -27.7% for the second.

Going from `O=C(Cn1c(CC(=O)N2CCOCC2)nc2ccccc21)Nc1ccc2c(c1)OC(F)(F)O2` to `Cc1c(/C=C2\SC(=O)N(CC(=O)Nc3ccc4c(c3)OCO4)C2=O)c2ccccc2n1C`, the “hERG current change (%, negative = inhibition) at 10uM” value rises from -20% to 1.04%.

Compared with `CN(C(=O)COC(=O)c1cc2ccccc2cc1O)c1c(N)n(Cc2ccccc2)c(=O)[nH]c1=O`, `CN(C(=O)CSc1nnc(Nc2ccccc2)s1)c1c(N)n(Cc2ccccc2)c(=O)[nH]c1=O` is higher in “hERG current change (%, negative = inhibition) at 10uM” value: 4.78% for the first, 14.4% for the second.

Going from `O=C(O)C1CCCN1S(=O)(=O)c1ccc(Br)s1.O=C(O)[C@@H]1CCCN1` (stereo not drawn) to `CCOC(=O)N1CCC(NC(=O)C2CCCCN2S(=O)(=O)c2ccc(F)cc2)CC1` (stereo not drawn), the “hERG current change (%, negative = inhibition) at 10uM” value falls from 15.2% to -4%.

Going from `COC(=O)c1c(NC(=O)CSc2nnnn2-c2ccccc2)sc2c1CCC(C)C2` (stereo not drawn) to `CCn1c(SCC(=O)Nc2nccs2)nnc1-c1ccccn1`, the “hERG current change (%, negative = inhibition) at 10uM” value falls from 20% to -0.703%.

Going from `NS(=O)(=O)c1ccc(NC(=O)COC(=O)CCC2CCCCC2)cc1` to `Cc1ccc(S(=O)(=O)NC(=O)N(C)C2CCCCC2)cc1`, the “hERG current change (%, negative = inhibition) at 10uM” value rises from -5.65% to 9.07%.

Compared with `Cc1cc(C)cc(NC(=S)N2CCCC2)c1`, `Cc1cc(C)cc(NC(=O)COC(=O)c2ccc(CN3CCCC3=O)cc2)c1` is lower in “hERG current change (%, negative = inhibition) at 10uM” value: 17.4% for the first, -16.1% for the second.

First: COc1ccc(CN(C)Cc2c(O)ccc3ccccc23)cc1
Second: COc1ccc(N(CC(=O)NC(C)c2ccccc2)S(=O)(=O)c2ccc(C)cc2)cc1 (stereo not drawn)
The “hERG current change (%, negative = inhibition) at 10uM” value of the first is lower: -24.7% for the first, -22.1% for the second.

Compared with `CCC(=O)Nc1cccc(NC(=S)NC(=O)c2cc3ccccc3o2)c1`, `COc1ccccc1C(=O)NNC(=O)C(=O)Nc1ccc(C)cc1` is lower in “hERG current change (%, negative = inhibition) at 10uM” value: 28.2% for the first, 23.4% for the second.

Compared with `CN1C2=NCCN2C(=O)c2cc(Cl)ccc21`, `Cc1ccc(S(=O)(=O)NCCC(=O)N2CCN(c3cccc(Cl)c3)CC2)cc1C` is lower in “hERG current change (%, negative = inhibition) at 10uM” value: 9.98% for the first, 4.35% for the second.

First: Cc1cc(C(=O)NP(=O)(N2CCOCC2)N2CCOCC2)c(C)n1C1CC1
Second: Cc1cc(OCC(=O)N2CCC(C(N)=O)CC2)c2c(C)c(C)c(=O)oc2c1
The “hERG current change (%, negative = inhibition) at 10uM” value of the first is lower: 12.6% for the first, 12.9% for the second.

Going from `CC(Sc1nnc2ccccn12)C(N)=O` (stereo not drawn) to `Cc1ccc(-n2c(SCC(=O)NCCN3C(=O)CSC3=O)nnc2-c2ccccc2F)cc1`, the “hERG current change (%, negative = inhibition) at 10uM” value falls from 2.79% to -17.4%.

Going from `CC1CCC(=C(C#N)C(=O)Nc2cccc(Cl)c2)CC1` (stereo not drawn) to `COc1ccc(NC2CCCN(C(=O)COc3ccc(Cl)cc3C)C2)cc1OC` (stereo not drawn), the “hERG current change (%, negative = inhibition) at 10uM” value falls from -2.6% to -11%.

First: Cn1c(=O)c(C(=O)COc2ccc(C#N)cc2)c(N)n(Cc2ccccc2)c1=O
Second: CCOc1ccc(N2C(=O)C3C(c4ccccc4)=NN(c4ccccc4)C3C2=O)cc1 (stereo not drawn)
The “hERG current change (%, negative = inhibition) at 10uM” value of the first is lower: -13.4% for the first, -2.93% for the second.

Compared with `CCCC(=O)Nc1c(-c2ccccc2Cl)c(=O)c2ccccc2n1C`, `Cc1onc(-c2ccccc2Cl)c1C(=O)c1ccccc1` is lower in “hERG current change (%, negative = inhibition) at 10uM” value: 35.3% for the first, 0.785% for the second.

Going from `CCOC(=O)c1oc2ccc(S(=O)(=O)n3nc(-c4ccc(Cl)cc4)cc3N)cc2c1C` to `CCOC(=O)c1nc2ccccc2c(=O)n1-c1ccc(C)cc1C`, the “hERG current change (%, negative = inhibition) at 10uM” value falls from 3.58% to -5.54%.

Compared with `CC1(C)NC(=O)N(CCCCOc2ccccc2[N+](=O)[O-])C1=O`, `O=c1cc(NCc2ccccc2)[nH]c(=O)[nH]1` is higher in “hERG current change (%, negative = inhibition) at 10uM” value: 3.42% for the first, 15.1% for the second.

First: CC(NC(=O)c1cccnc1)C(c1cccs1)N1CCN(C)CC1 (stereo not drawn)
Second: Cn1c(=O)c(=O)n(C)c2cc(S(=O)(=O)N3CCCC3C(=O)NCc3cccnc3)ccc21 (stereo not drawn)
The “hERG current change (%, negative = inhibition) at 10uM” value of the first is lower: 11.2% for the first, 21.4% for the second.

Going from `CCOC(=O)C1CCN(S(=O)(=O)c2ccc(OCC)cc2)CC1` to `CCCOc1ccc(/C=N/NC(=O)C2CCCN2S(=O)(=O)c2ccc(Cl)cc2)cc1` (stereo not drawn), the “hERG current change (%, negative = inhibition) at 10uM” value rises from -25.4% to -2.23%.

Compared with `O=C(Nc1ccc(Cl)cc1)[C@@H]1[C@@H]2C(=O)N(c3cccc(F)c3)C(=O)[C@@H]2[C@H]2C=CC=NN21`, `COc1cc(/C=N/Nc2ccc(Cl)c(C(=O)O)c2)ccc1OC(=O)c1ccc(F)cc1` is higher in “hERG current change (%, negative = inhibition) at 10uM” value: -9.36% for the first, -6.69% for the second.

Going from `COc1ccc(C2C(=O)c3ccccc3C2=O)c(OC)c1` to `CCOc1ccccc1C1C(C(=O)OC)=CN(C)C=C1C(=O)OC`, the “hERG current change (%, negative = inhibition) at 10uM” value falls from 7.12% to 4.08%.

Compared with `O=S(=O)(Cc1ccccc1)N1CCN(c2ccccc2)CC1`, `O=C(Nc1ccccc1C(=O)N1CCCCCC1)c1ccccc1` is lower in “hERG current change (%, negative = inhibition) at 10uM” value: 12% for the first, -2.15% for the second.

Compared with `CN1C(C(=O)NCc2ccccc2)CC2Cn3c(nc4cc(Cl)c(Cl)cc43)C21` (stereo not drawn), `O=C(NCCc1c[nH]c2ccccc12)c1cnc2n(c1=O)CCS2` is higher in “hERG current change (%, negative = inhibition) at 10uM” value: -65.6% for the first, 11.2% for the second.

First: COCCNCC#CCOc1ccc(OC)cc1
Second: COc1ccc(CCNC(=O)C/C(C)=N/NC(=O)c2cnccn2)cc1
The “hERG current change (%, negative = inhibition) at 10uM” value of the first is lower: -0.335% for the first, 10.7% for the second.

Going from `COc1ccc(NC(=O)COC(=O)/C=C/C(=O)OCC(=O)Nc2ccc(OC)c(Cl)c2)cc1Cl` to `COc1ccc2[nH]c3nc(SCC(=O)NNC(=O)c4ccc(OC)c(OC)c4)nnc3c2c1`, the “hERG current change (%, negative = inhibition) at 10uM” value falls from 26.1% to -0.146%.

First: O=C(NC(Cc1ccccc1)C(=O)O)/C(=C/c1ccc([N+](=O)[O-])cc1)NC(=O)c1ccc(Br)o1 (stereo not drawn)
Second: CN(C)S(=O)(=O)Oc1cccc(C(=O)Nc2ccc([N+](=O)[O-])cc2)c1
The “hERG current change (%, negative = inhibition) at 10uM” value of the first is higher: 11.5% for the first, 7.22% for the second.

Going from `O=C(O)C1Cc2[nH]cnc2C(c2ccccc2O)N1` (stereo not drawn) to `CCc1n[nH]c2c1/C(=N\O)CC(c1ccccc1)C2` (stereo not drawn), the “hERG current change (%, negative = inhibition) at 10uM” value falls from 12.1% to -25.1%.

Compared with `O=C(O)c1cnn2c1NC(c1cccs1)CC2C(F)(F)F` (stereo not drawn), `CC(NC(=O)Nc1nnc(C(F)(F)F)s1)N1C(=O)C2C3C=CC(C3)C2C1=O` (stereo not drawn) is lower in “hERG current change (%, negative = inhibition) at 10uM” value: 3.61% for the first, -13.1% for the second.

Compared with `C=CCOc1ccc(/C=C/C(=O)OCC(=O)NC(C)c2ccc(F)cc2)cc1` (stereo not drawn), `Cc1ccc(NC(CC(=O)c2ccccc2)c2ccc(F)cc2)cc1` (stereo not drawn) is lower in “hERG current change (%, negative = inhibition) at 10uM” value: -0.664% for the first, -3.39% for the second.

Compared with `Cn1c(=O)c(=O)n(C)c2cc(S(=O)(=O)CCC(=O)N3CCCCC3)ccc21`, `COc1cc(C(=S)N2CCCC2)ccc1OCc1ccccc1` is lower in “hERG current change (%, negative = inhibition) at 10uM” value: 11.5% for the first, 8.85% for the second.

First: COc1cccc(C(=O)c2sc(NC(C)C)nc2N)c1
Second: COc1ccccc1Nc1nc2c(s1)CCC2
The “hERG current change (%, negative = inhibition) at 10uM” value of the first is lower: -14.2% for the first, -3.3% for the second.

Compared with `CC(C)=NOC(=O)c1c(C)noc1-c1snnc1C`, `CCOC(=O)c1sc(NC(=O)/C=C/c2cnn(CC)c2C)c(C(=O)OCC)c1C` is lower in “hERG current change (%, negative = inhibition) at 10uM” value: 13.4% for the first, 12.6% for the second.

Compared with `CCCCc1ccc(NC(=O)Nc2cnccn2)cc1`, `CN(Cc1cnccn1)C(=O)CC1C(=O)NCCN1Cc1ccc(F)cc1Cl` (stereo not drawn) is higher in “hERG current change (%, negative = inhibition) at 10uM” value: -43.8% for the first, 20% for the second.

Going from `CC[C@H](C)Cc1cn([C@@H](CCCN=C(N)N)C(=O)NCCCCCCCCCCC(=O)N2CCNCC2)nn1` to `Cc1cc(C)cc(C(=O)OCC(=O)NC(=O)NC2CCCC2)c1`, the “hERG current change (%, negative = inhibition) at 10uM” value falls from 10.2% to 7.16%.

Going from `Cc1ccc(COc2coc(CO)cc2=O)cc1` to `O=C1CNC(=S)N1Cc1ccc(F)cc1`, the “hERG current change (%, negative = inhibition) at 10uM” value rises from -17.7% to 11.3%.

First: CCOC(=O)C1C(C)N=C2SCC(=O)N2C1c1cccc(Br)c1 (stereo not drawn)
Second: Cn1cnc2c1c(=O)n(Cc1cccc(Br)c1)c(=O)n2C
The “hERG current change (%, negative = inhibition) at 10uM” value of the first is higher: -12.6% for the first, -27.8% for the second.

Compared with `Cc1cc2c(=O)n(Cc3ccco3)c(SCC(=O)N3CCCc4ccccc43)nc2s1`, `Cc1ccc(C(C(=O)NC2CCCCC2)N(C(=O)Cc2c[nH]c3ccccc23)c2ccccc2)o1` (stereo not drawn) is higher in “hERG current change (%, negative = inhibition) at 10uM” value: -42.4% for the first, 4.16% for the second.

Compared with `CCc1ccccc1NC(=O)c1nnn(CC(=O)Nc2cccc(C)c2C)c1N`, `CC(C)CC(C(=O)NCc1ccccn1)N1C(=O)c2ccccc2C1=O` (stereo not drawn) is lower in “hERG current change (%, negative = inhibition) at 10uM” value: 2.68% for the first, -1.75% for the second.

Going from `COCCNC(=O)CNS(=O)(=O)c1ccc2nc(C)sc2c1` to `CC(=O)Nc1ccc(S(=O)(=O)N(C)CC(=O)NC2=NCCS2)cc1`, the “hERG current change (%, negative = inhibition) at 10uM” value falls from 12.9% to 0.0428%.

First: O=C(COC(=O)CN1C(=O)COc2ccccc21)NC1CCCCC1
Second: OCC[C@@H]1C[C@@H](O)[C@H](O)[C@]2(Cc3ccccc3CO2)O1
The “hERG current change (%, negative = inhibition) at 10uM” value of the first is lower: -0.159% for the first, 26.2% for the second.

First: CC(=O)Nc1ccc(S(=O)(=O)N(C)CC(=O)Nc2ccc(Br)cc2F)cc1
Second: COC(=O)C1(S(=O)(=O)c2ccc(C)cc2)CCOCC1
The “hERG current change (%, negative = inhibition) at 10uM” value of the first is lower: -33.4% for the first, -10% for the second.

Compared with `COc1cccc(O)c1CN1CCC(C(=O)Nc2ccc(Oc3cccnc3)cc2)CC1`, `CC(C)CC(=O)NC(Nc1ccc([N+](=O)[O-])cc1)C(Cl)(Cl)Cl` (stereo not drawn) is higher in “hERG current change (%, negative = inhibition) at 10uM” value: -47.4% for the first, -19.6% for the second.

For `O=c1oc2c(O)c(O)cc3c(=O)oc4c(O)c(O)cc1c4c23`, the “hERG current change (%, negative = inhibition) at 10uM” value was 9.44%.
